The whole screen tested about 420,000 compounds, of which about 50,000 (12%) were called active. This list was built around the results that the source calls inconclusive (neither active nor inactive); the mix of calls is not that of the screen. Calls come from the whole dose curve; as a rule, active = well fitted inhibition curve with a large enough effect; inconclusive = small, poorly fitted or top-dose-only effect; inactive = flat fitted curve, though single readings scatter. No potency is given beside an inconclusive call; the fits are too rough.
experiment: qHTS for Inhibitors of human tyrosyl-DNA phosphodiesterase 1 (TDP1): qHTS in cells in presence of CPT; conditions: chicken DT40 Tdp1-/-;hTDP1 cells + 20 nM CPT, ATP luminescence, 48 h; activity change, negative = growth inhibition: at 46.2 µM (top of the series); note: nearly all actives have a fitted effect of over 55% in size
Summary of the method: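 Chicken DT40 Tdp1-/- cells stably complemented with human TDP1 were seeded at 400 cells/well in medium containing 20 nM camptothecin, exposed to pin-transferred compounds, and grown at 37 °C for at least 48 hr. Viability was read as ATP luminescence.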
% is set by controls: 0 for no effect and ±100 for the full control effect; potency is the fitted concentration of half-maximal effect; tags give direction and shape of the fitted curve.

Row | SMILES | Potency | activity change, negative = growth inhibition
1 | Cc1ccsc1/C=N/Nc1ccc(Cl)nn1 | inconclusive [inhibitor, single point] | 
2 | CC(=O)c1ccc(NC(=O)CCc2c(C)nn(-c3ccc(N4CCCCC4)nn3)c2C)cc1 | inconclusive [inhibitor, single point] | 
3 | Cc1cc(C)cc(C(=O)NCCC(=O)N2CCC3(CC2)NCCc2[nH]cnc23)c1 |  | inactive: -7.09%
4 | COc1ccc2nc(C)cc(SCC(=O)Nc3c(C)cccc3C)c2c1 | inconclusive [inhibitor, single point] | 
5 | COc1ccc(C(=O)Nc2cc(C)nn2-c2ccc(C)cc2)cc1 | inconclusive [inhibitor, single point] | 
6 | O=C1CC(c2cccc(Cl)c2)c2cc3c(cc2N1)CCC3 (stereo unspecified) | active: 4.61 µM | 
7 | Cc1ccc(-c2cc(C(F)F)nc(S(C)(=O)=O)n2)cc1 | active: 0.92 µM | 
8 | COc1ccc(C)cc1NC(=O)CO/N=C(\N)CC(=O)NC1CCCCC1 |  | inactive: 0.994%
9 | CC(=O)Nc1cccc(NC(=O)c2ccccc2OCc2c(C)noc2C)c1 |  | inactive: -24.9%
10 | COc1cccc2c1CCC1=CC(=O)CCC12C (stereo unspecified) | inconclusive [inhibitor, single point] | 
11 | CCN(CC)CCCNC(=O)c1cc(Nc2ccc(OC)cc2)nc2ccccc12 | active: 18.4 µM | 
12 | CC(=O)Nc1ccc(S(=O)(=O)Nc2ccc(S(=O)(=O)Nc3nccs3)cc2)cc1 |  | inconclusive: -30.1% [inhibitor]
13 | COc1ccc(C(=O)Nc2ccccc2N2CCN(C(=O)c3ccccc3)CC2)cc1Br | inconclusive [inhibitor, single point] | 
14 | CCOc1ccccc1C(=O)N1c2ccccc2Sc2ccccc21 | active: 10.3 µM | 
15 | O=C(Nc1ccc2oc(-c3ccc(Cl)cc3)nc2c1)c1ccc2ccccc2c1 |  | inactive: 1.88%
16 | Cc1cc(C)cc(NC(=O)c2nccnc2C(=O)O)c1 |  | inactive: 5.37%
17 | Cn1c(=O)c2cn(-c3cccc4ccccc34)cc2n(C)c1=O | inconclusive [inhibitor, single point] | 
18 | CCOC(=O)c1c(NC(=O)c2ccc(OC)c(OC)c2)sc2c1CCCCC2 | inconclusive [inhibitor, single point] | 

Row | SMILES | Potency | activity change, negative = growth inhibition
19 | Cn1nc(-c2ccccc2)c(CN2CCN(c3ncccn3)CC2)c1Cl | inconclusive [inhibitor, single point] | 
20 | CC1(C(=O)NS(=O)(=O)c2cccc(C#N)c2)CCN1C(=O)c1ccc(C2CCCCC2)cc1 (stereo unspecified) |  | inactive: -22.4%
21 | O=C(CCOc1ccccc1)N(Cc1cccnc1)c1nc2ccc(F)cc2s1 | inconclusive [inhibitor, single point] | 
22 | CN(C)Cc1ccccc1-c1nc(N2CCOCC2)c2ccccc2n1 | inconclusive [inhibitor, single point] | 
23 | CCOc1ccccc1NC(c1nnc(-c2ccccc2)o1)c1ccc(F)cc1Cl (stereo unspecified) | inconclusive [inhibitor, single point] | 
24 | CC1(c2ccccc2)CC(C)(C)N2C(=O)C(=O)c3cccc1c32 (stereo unspecified) | inconclusive [inhibitor, single point] | 
25 | COc1cc(C(=O)O/N=C(\N)c2ccccn2)cc(OC)c1OC | inconclusive [inhibitor, single point] | 
26 | O=C(NCCc1ccccc1)c1ccc(Cl)c(S(=O)(=O)N2CCCC2)c1 | inconclusive [inhibitor, single point] | 
27 | CCOC(=O)C1CCC(C(=O)OCC)N1c1ccc(C=O)cc1 (stereo unspecified) |  | inactive: -2.89%
28 | O=C(Nc1ccc(F)cc1)N1CCN(C/C=C/c2ccccc2)CC1 | inconclusive [inhibitor, single point] | 
29 | CCOC(=O)C1CCN(C(=O)COC(=O)CNS(=O)(=O)c2ccc(SC)c([N+](=O)[O-])c2)CC1 |  | inactive: -21.3%
30 | Cc1cc(C)c2sc(NC(=O)c3ccc([N+](=O)[O-])o3)nc2c1 | inconclusive [inhibitor, partial curve] | 
31 | Oc1cccc(Nc2nc(N3CCOCC3)nc(N3CCOCC3)n2)c1 | active: 5.17 µM | 
32 | CCN(C(=O)c1cc2c(=O)oc3ccc(C)cc3c2s1)c1ccccc1F | inconclusive [inhibitor, single point] | 
33 | Fc1ccc(NC(=S)NC23CN4CN(CN(C4)C2)C3)cc1 | inconclusive [inhibitor, partial curve] | 
34 | CN1CCN(C2CN(Cc3cn(Cc4ccc(Cl)cc4)nn3)S(=O)(=O)C2)CC1 (stereo unspecified) |  | inactive: -14.5%
35 | Fc1ccccc1NC(=S)NCCc1ccccc1 | active: 7.31 µM | 
36 | CCOc1ccc(S(=O)(=O)N2CCN(c3nc(-c4ccccc4)nc4ccccc34)CC2)cc1OCC | inconclusive [inhibitor, single point] | 
